# From ChEMBL document CHEMBL4888484, “Replenishing the malaria drug discovery pipeline: Screening and hit evaluation of the MMV Hit Generation Library 1 (HGL1) against asexual blood stage Plasmodium falciparum ,using a nano luciferase reporter read-out” (2022)
# About 540 (0.36%) of roughly 150,000 compounds showed an effect of 50% or more. The list shows a part of the results.
# Tested on: Plasmodium falciparum
# Assay: Primary screen in NF54 nanoGlo assay, in single point, at 2uM, 72h; a lower Z score goes with more inhibition
# Format: functional, Erythrocyte
# Conditions: timepoint 72 hour
SMILES,% Inhibition,Z score
COc1cc(C)cnc1C(=O)N1CCC[C@](C)(F)C1,-12%,1.49
Cc1n[nH]c(C2CN(CC3CCCO3)CCO2)n1 (stereo not drawn),-7%,1.14
Cc1nn(C)cc1CN1CCN(C(=O)OC(C)(C)C)[C@H](C)C1,7%,-0.93
CCCN(CCc1cccc(F)c1)C(=O)C1(N)CC2(CCC2)C1,-5%,0.99
CC(C)c1nnsc1CN1CC[C@@]2(CCCN(CC3CCC3)C2=O)C1,-4%,0.59
Cc1ccc(-c2nsc3c(=O)n(CC(=O)NCCCc4ccccc4)cnc23)cc1,-4%,0.61
C[C@H](CC1CCCCC1)NC(=O)c1cc2c(cc1Br)NC(=O)CO2,-14%,1.58
Cc1cnc(N2CCCC(C)C2CN)nc1 (stereo not drawn),-14%,1.15
CCn1nc(C)c2c(-c3ccccc3)cc(O[C@@H](C)C(=O)Nc3cccc(OC)c3)nc21,-17%,1.87
O=C1OC[C@@H]2CCN(C3CCCC3)Cc3ccccc3N12,-5%,0.82
O[C@@H](CC1CCCC1)CN1CCn2ncnc2C1,-6%,0.83
Cc1ccsc1CNCc1cccc(-c2ccccc2)c1,-1%,0.17
COCCNC(=O)c1ccc(-n2nc(-c3nnc(C)o3)c(C)c2-c2ccc(OC)cc2)cc1,33%,-8.37
Cc1cccc([C@@H](NC(=O)N(C)CC2(O)CCOCC2)C(C)(C)C)c1,-15%,1.91
Cc1sc(-c2ccn[nH]2)cc1NC(=O)c1ccc2ccccc2n1,-11%,1.14
O=C([C@@H]1COc2ccccc2C1)N1CCC(COc2cc(C3CC3)ncn2)CC1,-3%,0.31
COC(=O)C1CCC1C(=O)N1CC(OC)C1 (stereo not drawn),-3%,0.54
O=C(Nc1cccc2c1OCCO2)N1CCCCO1,2%,-0.28
CCCNC(=O)C(=O)NCc1ccc(C)cc1,-8%,1.09
O=C(c1cccnc1)N1CC[C@H](OCC2CC2)C1,2%,-0.25
Cc1nc2ccc(NC(=O)N3C[C@H](OC(C)C)[C@@H](O)C3)cc2[nH]1,1%,-0.18

SMILES,% Inhibition,Z score
CC(=O)N1CC[C@H](OC(=O)c2cc(C)c(F)c(C)c2)C1,-14%,1.51
CCN1CCN(C2(C(=O)N(CC)CC)Cc3ccccc3C2)CC1,-18%,2.63
CCn1ccnc(NC2CCCCCC2)c1=O,-5%,0.75
CC(C)(C)[C@@H](N)COc1ccccc1F,-11%,1.12
CC[C@@H](C(=O)N1CCCN(c2nc(CN3CCN(c4ccccc4Cl)CC3)cc(=O)[nH]2)CC1)c1ccccc1,-6%,0.86
COC(=O)C[C@H](C)NC(=O)C1(C#N)CCCC1,-14%,2.24
COc1ccc(CN2CCNC(=O)[C@@H]2CC(=O)N2CCCO2)c(F)c1,-15%,1.56
CCn1cnc2c1CN(S(=O)(=O)c1ccc(C#N)cc1)CC2,-9%,1.04
Cc1ccc(CN(C[C@H](O)COCc2ccccc2)C(C)C)cc1,-1%,0.09
O=C1[C@H](c2ccccc2)CC2(CCN(Cc3ccccn3)CC2)CN1C1CC1,11%,-1.84
COc1cc(C)ccc1CN1CCc2[nH]cnc2[C@@H]1c1cnc(C)n1C,8%,-1.06
Cc1nnsc1C(=O)NC1CCC2CN(Cc3ccccc3)CC21 (stereo not drawn),-10%,1.94
CCCOC(=O)N1CCC2(CC1)C[C@@H](c1ccccc1)C(=O)N(C)C2,2%,-0.27
O=C(NCC1Cc2ccccc21)NOC1CCCCO1 (stereo not drawn),-11%,1.53
Fc1cccc(F)c1CN(Cc1cncnc1)C1CC1,2%,-0.21
O=C(NC[C@H](O)c1ccc2c(c1)OCCO2)C(=O)Nc1ccccc1C(F)(F)F,-15%,1.87
O=C(C1CCC1)N1CCc2sc(S(=O)(=O)NCc3ccc(F)cc3Cl)cc2C1,-5%,0.96
O=C(NCCc1cnn(-c2ccccc2)c1)c1ccc(-n2cnnc2)nc1,-17%,2.33
CC1CN(C(=O)CC2NC(=O)N(c3ccc(F)cc3)C2=O)C(C)CO1 (stereo not drawn),29%,-3.95
O=C(c1cccc(S(=O)(=O)N2CCCCC2)c1)N1CCn2ncnc2C1,-6%,0.75
CCC(CC)S(=O)(=O)Cc1nnc(-c2ccccc2)o1,-3%,0.33

SMILES,% Inhibition,Z score
CCN(C(=O)c1ccc(S(=O)(=O)N2CCOCC2)cc1)c1ccccc1,-12%,2.01
O=C(NCC1CCN(C(=O)c2ccco2)CC1)C1CCC1,-20%,2.05
COc1ccccc1OCc1n[nH]c(-c2cc(C(C)(C)C)nc(=O)[nH]2)n1,-16%,1.78
Cc1ccc(-c2cc(=O)n(CC(=O)Nc3ccc(C)c(Cl)c3)[nH]2)cc1,-12%,1.61
CC[C@H](NC(=O)c1ccc(N)nc1)c1ncccc1C,0%,0.05
CCc1nn(C)cc1NC(=O)NC[C@H]1C[C@@H]1C(F)(F)F,10%,-1.54
Cc1cccc(C)c1NC(=O)c1cccc(NC(=O)CCc2cc(O)no2)c1,1%,-0.08
CCc1ccsc1C(=O)N(C)Cc1ncnn1C,1%,-0.09
CCN1CCN(c2cccc(NC(=O)c3ccc4[nH]c5ccccc5c(=O)c4c3)c2)CC1,92%,-9.25
CCC(CC)c1nnc(NC(C)=O)s1,-4%,0.79
CC(=O)Nc1ccnn1C1CCCCC1,3%,-0.32
CC(C)[C@H](NC(=O)N1CCN2C(CNS2(=O)=O)C1)C(F)(F)F (stereo partly drawn),-9%,1.71
CCc1nc2ncc(-c3ccnc(N4CCC(C)CC4)n3)c(C)n2n1,-7%,0.96
CC(NC(=O)C1CCCN(C(=O)c2cccs2)C1)c1ccncc1 (stereo not drawn),-10%,1.21
Cc1[nH]nc(C(=O)N2CCC(C(C)O)C2)c1C (stereo not drawn),-11%,1.77
C[C@@H]1CC(=O)N[C@H](C(=O)NCC2(C)CCN(C(=O)[C@@H]3C[C@H](C)CC(=O)N3)C2)C1 (stereo partly drawn),-22%,1.85
CN(Cc1cnccn1)C(=O)c1cc(F)c(F)cc1Cl,3%,-0.56
CN(C)C(=O)N1CCC(CNC(=O)c2ccc(Cl)s2)CC1,-9%,1.05
CC(C)n1nccc1C(=O)N1CCN(Cc2nnc[nH]2)CC1,0%,-0.02
Cc1cccc(-c2nc3ccc(F)cc3n2C(C)C)c1NC(=O)Cc1ccccc1Cl,12%,-1.23
O=C(c1ccc(=O)[nH]c1)N1CCC[C@H]1c1nc(-c2ccccc2)no1,-12%,1.09

SMILES,% Inhibition,Z score
Cc1c(C(=O)N2CCCCC2)sc2ncnc(N(C)CCc3ccccn3)c12,-12%,1.31
CCN(CC)S(=O)(=O)c1ccc2c(c1)cc(C(=O)N1CCC(Cc3ccccc3)CC1)n2C,-7%,1.3
NC(=O)Cn1nc2n(c1=O)CCN(Cc1ccccc1F)C2=O,-17%,1.94
COc1cc(OC)cc(-c2nn(CN3CCC[C@H](C(=O)Nc4ccccn4)C3)c(=S)o2)c1,5%,-0.9
Cc1c(C(=O)N2CCN(c3nc(N)ns3)CC2)nnn1-c1ccc2c(c1)OCCO2,-10%,1.23
O=C(COc1ccc(Cl)cc1)n1c2ccccc2c2ccccc21,39%,-5.68
CCc1nn(C)cc1NC(=O)[C@H](C)NS(=O)(=O)c1c(C)nn(C)c1C,7%,-1.38
Cn1nc(C(=O)NC2CCCCCCC2)c2ccccc2c1=O,-6%,1
CCOc1ccc(S(=O)(=O)Nc2ccccc2CCc2nc3ccccc3[nH]2)cc1,-10%,1.19
O=C(Nc1cnn(CC(=O)N2CCCCC2)c1)c1ccccc1,5%,-0.66
Cn1nc(CN2CCC(OCc3ccc(Cl)c(Cl)c3)CC2)[nH]c1=O,-4%,0.55
Cc1cccc(CN2CCN(C(=O)c3cnc(NC(C)C)nc3)[C@@H](C)C2=O)c1,-7%,1
O=C(Nc1ccc(-c2ncco2)cc1)C1([C@@H]2CCCCO2)CCC1,-11%,1.16
O=C(N[C@@H](c1ccc(F)cc1)c1ccccc1Cl)C1CCOCC1,1%,-0.06
Cc1nn(-c2ccccc2)c2sc(-c3noc(-c4cccs4)n3)cc12,8%,-0.97
Cc1c(C(=O)NCc2ccccc2)cc(-c2ccccc2)n1-c1ccc(F)cc1,6%,-0.88
Cc1cnc(C)n1C1CCN(S(=O)(=O)c2cccc3nsnc23)CC1,-9%,1.24
CC(C)c1ccc(NC(=O)N2CCC3OCCN(C)C3C2)cc1F (stereo not drawn),9%,-1.19
Cc1ccc2c(c1)N(C)C(=O)c1cc(NC(=O)c3cccc(Br)c3)ccc1O2,10%,-1.58
O=C(C1CCN(S(=O)(=O)N2CCOCC2)CC1)N1CCCn2nc(-c3ccc(C(F)(F)F)cc3)cc2C1,-19%,1.68
O=C(Nc1nc2ccccc2s1)c1ccc(OCc2ccccc2)cc1,-6%,0.83
